# Among all 360,000 compounds or so, about 6,000 (1.7%) were called active. The shares of active, inactive and inconclusive entries below differ from those in the screen. The call rests on the fitted dose curve; in most records, active means well fitted cell-killing curve with a large enough effect; inconclusive means small, poorly fitted or top-dose-only effect, or effect the other way; inactive means flat fitted curve, though single readings scatter. No potency is given beside an inconclusive call; the fits are too rough.
# Experiment: qHTS for induction of synthetic lethality in tumor cells producing 2HG: qHTS for the HT-1080-NT fibrosarcoma cell line;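 further: NT is the 2HG producing partner of a matched IDH1 knockdown line; nearly all actives have a fitted effect of over 55% in size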;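 on activity, negative = less viability: 0% = DMSO-treated cells and -100% = media-only wells without cells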
# Conditions: HT-1080-NT fibrosarcoma viability, CellTiter-Glo ATP luminescence, 48 h; activity, negative = less viability: at 46.1 µM (top of the series) unless noted
# How it was run: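 HT-1080-NT fibrosarcoma cells (2HG-overproducing), 750 cells/well in RPMI with 5% FBS, dosed after 2 h and incubated 48 h at 37C. CellTiter-Glo luminescence normalized to DMSO and no-cell wells; concentration-response curves fitted and classed.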
# Potency means the concentration at half of the fitted maximal effect; tags describe the fitted curve by direction and shape.
SMILES,Potency,"activity, negative = less viability"
Cc1cc(C)c(-n2c(SCCS(=O)(=O)c3ccc(F)cc3)n[nH]c2=O)c(C)c1,"inconclusive [cytotoxic, single point]",–
Cc1ccc(S(=O)(=O)N(c2cccc(C(F)(F)F)c2)C2C=CS(=O)(=O)C2)cc1 (stereo not drawn),inactive,–
Cc1cc(C)cc(N2C(=O)CC(Sc3nnnn3-c3ccccc3)C2=O)c1 (stereo not drawn),active: 7.08 µM,–
CC(C)(C)NC(=O)CN(C(=O)CCC(=O)Nc1nccs1)c1cccc(C(F)(F)F)c1,inactive,–
Cc1ccc(-c2nc3c(c(=O)c4ccccc4n3C)c(=O)n2-c2ccc(F)cc2)cc1,"inconclusive [rising, single point]",–
O=C(CCNS(=O)(=O)c1ccccc1)NCCCSc1ccccc1,inactive,–
CCCCN(CCCC)CC(O)COc1ccccc1C(=O)Nc1ccccc1 (stereo not drawn),"inconclusive [cytotoxic, single point]",–
CCc1ccc(C(C(=O)NCc2ccc(OC)cc2)N(CCOC)C(=O)Cc2cccs2)cc1 (stereo not drawn),"inconclusive [cytotoxic, single point]",–
CCCCCCN1C[C@H](O)[C@@H](n2cc(-c3ccc(F)cc3)nn2)C[C@@H]1c1ccccc1,"inconclusive [cytotoxic, single point]",–
Cc1cccn2c(=O)c(/C=C(\C#N)C(=O)NC3CCS(=O)(=O)C3)c(Oc3ccc(F)cc3)nc12 (stereo not drawn),"inconclusive [cytotoxic, single point]",–
CC1(C)CC(=O)C2=C(C1)N(Cc1ccco1)C(=O)C2(NC(=O)C1CCCCC1)C(F)(F)F (stereo not drawn),"inconclusive [cytotoxic, single point]",–
CC1CN(c2ncnc3c2c(-c2ccccc2)cn3-c2ccc(F)cc2)CC(C)O1 (stereo not drawn),"inconclusive [cytotoxic, single point]",–
O=C(CSc1n[nH]c(-c2ccccc2)n1)c1ccc(O)c(O)c1,"inconclusive [cytotoxic, single point]",–
COc1cccc(C2CC(=O)Nc3cc4c(cc32)CCC4)c1 (stereo not drawn),active: 23.1 µM,–
O=C(Nc1nccs1)c1ccc(COc2ccccc2Br)o1,active: 10 µM,–
Cc1ccc(Nc2ncnc3sc(C)c(C)c23)cc1,"inconclusive [cytotoxic, single point]",–
CC(C)(C)c1ccc(Cn2nnc3c(=O)[nH]c(C4CCCN(C(=O)c5ccco5)C4)nc32)cc1 (stereo not drawn),"inconclusive [cytotoxic, partial curve]",–
C=CCc1c(C)nc(C)nc1N/N=C/c1ccc([N+](=O)[O-])cc1,–,inconclusive: 33%
Cc1ccc(C)c(Cn2c(=O)n(CCCC(=O)NCc3ccco3)c(=O)c3sccc32)c1,"inconclusive [cytotoxic, partial curve]",–
Nc1nnc(CCCCCc2nnc(N)s2)s1,inactive,–
CC(C)c1ccc(NC(=O)C2(C)Cc3c(-c4ccccc4)ccnc3O2)cc1 (stereo not drawn),"inconclusive [rising, single point]",–
CCc1ccccc1NC(=S)N1CCC(C(=O)c2ccc(F)cc2)CC1,"inconclusive [cytotoxic, single point]",–
CN(C)CCCn1c2c(c(SCC(=O)Nc3ccc4c(c3)OCCO4)nc1=O)CCC2,inactive,–

SMILES,Potency,"activity, negative = less viability"
Cc1ccc(Cc2c(-c3ccc(Cl)cc3)nc3c(Cl)cc(C(F)(F)F)cn23)cc1,inactive,–
COc1ccc(C(=O)NC(=S)Nc2nc(C)cc(C)n2)cc1Br,"inconclusive [rising, single point]",–
CC1(Cc2cc(Cl)ccc2C(F)(F)F)C(=O)Nc2ccc(OC(F)(F)F)cc21 (stereo not drawn),"inconclusive [cytotoxic, single point]",–
CCCCCc1ccc(CC(=O)Nn2c(C)nc3ccccc3c2=O)cc1,"inconclusive [cytotoxic, single point]",–
Cc1ccc(C)c(OCCC(=O)OCC(=O)Nc2ccc(Cl)cn2)c1,inactive,–
CCN(CC)CCN(Cc1cc2cc(C)c(C)cc2[nH]c1=O)C(=S)NCc1ccco1,"inconclusive [cytotoxic, single point]",–
OC1CCCN(CC(O)COc2ccc(-c3ccccc3)cc2)C1 (stereo not drawn),"inconclusive [cytotoxic, single point]",–
Cc1ccc(-n2cccn2)c(CN2CCCC(CNC(=O)c3ccc(F)cc3)C2)c1 (stereo not drawn),"inconclusive [cytotoxic, single point]",–
COc1ccc(NC(=S)Nc2ccccc2C(F)(F)F)cc1,inactive,–
COC(=O)[C@]12CCCCC=C1N(Cc1ccc(Cl)cc1Cl)C(=O)[C@H](CC(=O)N1CCCCC1)C2,"inconclusive [cytotoxic, single point]",–
Cc1cccc2c1-c1sc(C(=O)Nc3cccnc3)cc1CO2,"inconclusive [cytotoxic, single point]",–
COc1ccc(NC(=O)c2c(Cl)n(C)c3ccccc23)cc1,active: 18.4 µM,–
CC1CCc2c(sc(NC(=O)c3ccco3)c2C(=O)O)C1 (stereo not drawn),"inconclusive [cytotoxic, partial curve]",–
S=c1[nH]nc(-c2ccc3ccccc3n2)n1-c1ccc2c(c1)OCCO2,inactive,–
CC(C)N(C(C)C)S(=O)(=O)c1ccc(N2CCc3ccccc3C2)nc1,"inconclusive [cytotoxic, single point]",–
COc1ccccc1-n1c(=O)oc2ccc(Cl)cc2c1=O,active: 2.91 µM,–
CCCCCNC(=O)C(c1ccccc1)n1c(=O)c(-c2cc3ccccc3[nH]2)nc2ccccc21 (stereo not drawn),"inconclusive [cytotoxic, single point]",–
N#Cc1c(N)nc(SCC(=O)NCCc2ccccc2)c(C#N)c1-c1cccs1,"inconclusive [cytotoxic, single point]",–
O=c1[nH]c2ccc([N+](=O)[O-])cc2nc1/C=C(\O)c1ccccc1,"inconclusive [rising, single point]",–
Cc1ccc(-c2nn(-c3ccccc3)cc2/C=N/NC(=O)CSc2nnc(C)n2-c2ccccc2)cc1,"inconclusive [cytotoxic, single point]",–
S=C(NCc1ccco1)Nc1cccc(Cl)c1,"inconclusive [cytotoxic, single point]",–
O=C(COC(=O)c1ccccc1)Nc1cccc(S(=O)(=O)NC2=NCCCCC2)c1,–,inconclusive: 30.3%
Cc1nn(C2CCS(=O)(=O)C2)c2nc(C3CC3)cc(C(=O)Nc3cccc(C#N)c3)c12 (stereo not drawn),inactive,–

SMILES,Potency,"activity, negative = less viability"
COc1ccc(OC(=O)COc2ccc(C)cc2)cc1,"inconclusive [cytotoxic, single point]",–
COc1ccccc1N1CC(O)=C(c2nc3ccccc3s2)C1=N,"inconclusive [cytotoxic, single point]",–
CCCCCN(C(=O)CCC(=O)OCCOc1cccc(Cl)c1)c1c(N)n(CCCC)c(=O)[nH]c1=O,inactive,–
COc1ccc(Cl)cc1NC(=O)CN(C)Cc1cccs1,inactive,–
NC(=O)c1ccc(Oc2ccc3c(c2)CCC3)c([N+](=O)[O-])c1,–,inconclusive: -30.1% [cytotoxic]
Cc1ccc(O)c(NC(=O)c2cc(-c3cccs3)on2)c1,"inconclusive [cytotoxic, single point]",–
CCc1cccc(C)c1NS(=O)(=O)c1cc(Br)cnc1N,"inconclusive [cytotoxic, single point]",–
CCCCCCN1C[C@H](n2cc(COC(=O)c3ccccc3)nn2)[C@@H](O)C[C@@H]1c1ccc(C)cc1,"inconclusive [cytotoxic, single point]",–
O=C(Nc1nnc(SCc2ccccc2Cl)s1)c1cccc([N+](=O)[O-])c1,active: 18.4 µM,–
O=C(CN1CCC(C(O)(c2ccccc2)c2ccccc2)CC1)Nc1ccccc1,"inconclusive [cytotoxic, single point]",–
O=C(c1ccc(Cn2c(=S)[nH]c3ccccc3c2=O)cc1)N1CCN(c2ccccn2)CC1,"inconclusive [cytotoxic, partial curve]",–
COC(=O)CCSc1cc(NCCOC(C)=O)c([N+](=O)[O-])c2nonc12,active: 20.6 µM,–
O=C(NCCN1CCOCC1)c1cc2sccc2n1Cc1ccc(Cl)cc1,"inconclusive [cytotoxic, partial curve]",–
Cc1cccc(NC(=S)N/N=C/c2cccc(O)c2)c1C,"inconclusive [cytotoxic, partial curve]",–
Cc1ccc2cc(-c3noc(C(C)(C)C)n3)c(=O)[nH]c2c1,"inconclusive [rising, partial curve]",–
Cc1cccc(C(=O)N2CCCC(N3CCN(c4ccc(F)cc4)CC3)C2)n1 (stereo not drawn),inactive,–
O=C(/C=C\c1ccccc1)NCC(=O)N/N=C/c1ccc(O)cc1O,"inconclusive [cytotoxic, partial curve]",–
O=C(CN1CCN(c2cccc(Cl)c2)CC1)NC1CCCc2ccccc21 (stereo not drawn),"inconclusive [cytotoxic, single point]",–
COc1ccc(NC(=O)CCN2CCN(c3ccc(F)cc3)CC2)cc1,inactive,–
Cc1ccc2c(c1)C(=O)N1[C@H]3c4cc(C)ccc4OC[C@@H]3[C@H](c3ccccc3)[C@]1(C)C(=O)N2,"inconclusive [cytotoxic, full curve]",–
Clc1cccc(Cl)c1COc1ccccc1CNn1cnnc1,"inconclusive [cytotoxic, single point]",–
COc1cccc(C(C)(O)c2nc(-c3ccc(N(C)C)cc3)cs2)c1 (stereo not drawn),"inconclusive [cytotoxic, single point]",–

# Source: PubChem BioAssay AID686970 (National Center for Advancing Translational Sciences (NCATS), 2013)
